Results reported in publication PMC4336329 (PLoS ONE, 2015).
The campaign covered roughly 310,000 compounds. About 2,200 (0.71%) showed an effect of 50% or more. Effects have a minus sign here. The list shows a part of the results.

Target: human ether-à-go-go-related gene (hERG) potassium channel (human, UniProt Q12809)
Experiment: primary screen, population patch clamp on CHO cells stably expressing hERG

human ether-à-go-go-related gene (hERG) potassium channel, sequence (Q12809 whole entry, looked up): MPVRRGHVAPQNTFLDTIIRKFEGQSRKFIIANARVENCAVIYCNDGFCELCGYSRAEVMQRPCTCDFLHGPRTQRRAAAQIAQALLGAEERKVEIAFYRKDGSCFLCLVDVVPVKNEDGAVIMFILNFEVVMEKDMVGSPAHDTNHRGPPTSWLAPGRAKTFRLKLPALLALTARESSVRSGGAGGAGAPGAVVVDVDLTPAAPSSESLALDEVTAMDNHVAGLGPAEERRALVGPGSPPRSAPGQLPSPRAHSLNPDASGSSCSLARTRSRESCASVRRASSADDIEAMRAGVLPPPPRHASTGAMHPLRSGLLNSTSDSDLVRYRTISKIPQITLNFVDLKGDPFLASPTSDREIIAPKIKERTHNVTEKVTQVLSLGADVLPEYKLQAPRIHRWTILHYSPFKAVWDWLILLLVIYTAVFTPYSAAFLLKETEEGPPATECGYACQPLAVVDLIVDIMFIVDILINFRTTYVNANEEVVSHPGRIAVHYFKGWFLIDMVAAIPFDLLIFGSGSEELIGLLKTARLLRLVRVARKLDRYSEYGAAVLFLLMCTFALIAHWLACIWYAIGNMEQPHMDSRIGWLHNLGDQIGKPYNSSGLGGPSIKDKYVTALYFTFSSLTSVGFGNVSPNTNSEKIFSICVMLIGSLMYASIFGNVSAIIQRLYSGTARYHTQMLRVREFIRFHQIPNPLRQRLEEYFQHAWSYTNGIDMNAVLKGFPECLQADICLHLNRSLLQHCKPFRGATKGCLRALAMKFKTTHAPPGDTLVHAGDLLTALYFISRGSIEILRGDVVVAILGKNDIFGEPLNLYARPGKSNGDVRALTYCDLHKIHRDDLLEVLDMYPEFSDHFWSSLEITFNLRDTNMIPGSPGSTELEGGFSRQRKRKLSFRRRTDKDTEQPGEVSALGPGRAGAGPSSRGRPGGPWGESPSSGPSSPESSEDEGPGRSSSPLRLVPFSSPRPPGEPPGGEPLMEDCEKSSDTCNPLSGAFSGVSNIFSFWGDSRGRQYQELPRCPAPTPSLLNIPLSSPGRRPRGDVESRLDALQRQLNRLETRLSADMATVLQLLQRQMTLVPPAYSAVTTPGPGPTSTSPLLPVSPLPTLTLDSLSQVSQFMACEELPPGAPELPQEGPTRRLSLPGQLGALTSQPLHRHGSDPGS

SMILES	hERG current change (%, negative = inhibition) at 1uM [%]
Cc1cc2[nH]c(=O)c(=O)[nH]c2cc1S(=O)(=O)Nc1cccc(F)c1	4.56
CCOC(=O)CSc1nnc(-c2nnc(SCC(=O)OCC)n2CC)n1CC	-8.65
O=C(NCCC(=O)N(CCc1ccccc1)Cc1ccccc1)c1ccc(Br)cc1	-8.05
CC(C)(CO)NC(=O)CC1C(=O)NCCN1CC(c1ccccc1)c1ccccc1 (stereo not drawn)	4.15
O=C(Cc1ccccc1)N[C@@H](Cc1ccccc1)c1nc2ccccc2[nH]1	3.31
Cc1cc(C)nc(-n2nc(C)c3c(C(F)F)cc(C)nc32)n1	15.5
O=C1C2C3C=CC([C@@H]2C(=O)N1c1nccs1)C31CC1 (stereo partly drawn)	10.4
Cc1cccc(NCc2cc(Cl)ccc2O)n1	12.2
CCC(C)(C)NC(=O)C(c1ccc(OC)cc1)N(C(=O)CCC(=O)Nc1cc(C)on1)c1cc(OC)ccc1OC (stereo not drawn)	7.38
Cc1cc(C)c(S(=O)(=O)N/N=C/c2ccc([N+](=O)[O-])o2)c(C)c1	16.1
CCCCN(C)C(=O)c1nc2ccccn2c1CN1CCN(C/C=C/c2ccccc2)CC1	-80.8
COC(=O)[C@H](CCSC)NC(=O)Cn1ccc(N)nc1=O	11.8
O=C(Cn1c(=S)[nH]c2ncccc2c1=O)NCCc1ccccc1	15.6
Cc1ccc(CONC(=O)c2ccc([N+](=O)[O-])cc2)cc1	1.83
OCCN(Cc1nc(-c2ccc3c(c2)OCO3)no1)Cc1cccs1	7.42
CCOc1ncnc2c1sc1nc(C)cc(C)c12	12.7
COc1ccc2c(c1)O[C@H](c1ccc3c(c1)OCO3)[C@@H](O)C2=O	2.39
Cc1cccc(C2CC(c3ccccc3)Nc3nc(N)nn32)c1 (stereo not drawn)	1.03
COc1ccc(S(=O)(=O)N2Cc3ccccc3CC2C(=O)Nc2ccc3c(c2)OCO3)cc1 (stereo not drawn)	9.56
CCCNC(=O)N1CCN(S(=O)(=O)c2ccc(C)cc2)CC1	3.42
CSc1ncccc1C(=O)Nc1cccc(S(=O)(=O)N(C)c2ccccc2)c1	2.83
COc1cc(NC(=O)c2nnn(Cc3ccc(SC)cc3)c2N)cc(OC)c1	0.634

SMILES	hERG current change (%, negative = inhibition) at 1uM [%]
CCc1ccc2c(c1)C(=O)C(=O)N2CCS(=O)(=O)c1ccccc1	12.4
COC(=O)c1ccc(C(=O)OC)c(NS(=O)(=O)c2ccc(NC(C)=O)cc2)c1	4.56
O=C(O)c1ccccc1C(=O)Nc1c(-c2ccccc2)nc2ccccn12	13.6
CN(C)c1cccc(C(=O)OCCNC(=O)c2cccc(S(=O)(=O)N3CCOCC3)c2)c1	6.31
CC(C)NCCCOc1ccc(C(C)(C)c2ccccc2)cc1.O=C(O)C(=O)O	19.5
CCOc1ccc(NC(=NCc2ccc3c(c2)OCO3)SC2CC(=O)N(c3ccc(C(=O)O)cc3)C2=O)cc1 (stereo not drawn)	10.8
Cc1cn([C@H]2C[C@H](N=[N+]=[N-])[C@@H](CO)O2)c(=O)[nH]c1=O	10.4
CC(C)NC(=O)CSc1ccccc1C(=O)NCc1ccc2c(c1)OCO2	10.1
CCOc1cc(/C=C2\C(=O)ON=C2c2ccccc2)cc(Br)c1O	10.4
COc1ccc2nc(NC(=O)CN3CCOCC3)sc2c1	2.84
COc1ccc(-c2coc3cc(O)cc(O)c3c2=O)cc1OC	17.1
CC(=O)N/N=C(\C)c1cccc(NC(=O)c2cccs2)c1	12.8
O=C(NCc1ccccc1)c1cc(=O)c2ccccc2o1	18.1
COc1ccc(NC(=O)COc2ccc(C(=O)OCC(=O)N(C(C)C)C(C)C)cc2OC)cc1	8.95
CCCCc1ccc(-c2csc(/C(C#N)=C\c3ccco3)n2)cc1	3.31
COc1ccc([C@H]2CC(=O)C=C(c3cc(Cl)ccc3OC)C2)cc1	16.5
COc1ccc(C(=O)NCC(=O)N/N=C/c2ccc(C)o2)cc1OC	10.1
Fc1cccc(C2NC(=S)NC3=C2N2CCC3CC2)c1 (stereo not drawn)	1.79
COc1ccc(NC(=O)CSc2nnc(CNC(=O)COc3ccc(Cl)cc3)o2)c(OC)c1	-3.05
COc1ccc(C(=O)NNC(=O)C(=O)NC2CCCCC2)cc1	4.11
O=C(CSc1n[nH]c(=O)[nH]c1=O)N/N=C/c1ccccc1	6.79
COc1ccc(CNC(=O)c2nnn(CC(=O)Nc3cc(C)cc(C)c3)c2N)cc1	18

SMILES	hERG current change (%, negative = inhibition) at 1uM [%]
Cc1c(OCC(=O)NC(Cc2ccc(Cl)cc2)C(=O)O)ccc2c(-c3ccccc3)cc(=O)oc12 (stereo not drawn)	1.02
N#Cc1ccc(C(=O)Nc2cccc3cccnc23)c(F)c1	13.9
Cc1ccc(/C=C/C(=O)O)cc1S(=O)(=O)NCCCC(=O)O	2.96
COc1ccc(-c2nc(CS(=O)(=O)CC(=O)Nc3cccc(C(C)=O)c3)c(C)o2)cc1	7.52
CC(C)C(=O)NC(=S)Nc1ccccc1C(=O)NC1CCCCC1	10.5
Cc1ccc(NC(=O)N2CCC(c3ccccc3)C2)cc1C (stereo not drawn)	0.412
Cc1ccc(N2CCN(CCCCN3C(=O)C4CCCN4C3=O)CC2)cc1.Cl (stereo not drawn)	-3.91
COc1ccc(S(=O)(=O)N2CCOC2CNC(=O)C(=O)NCC(C)C)cc1OC (stereo not drawn)	12.6
COc1ccccc1C(=O)N(C)c1nnc(-c2ccccc2)s1	9.26
Cc1onc(-c2c(Cl)cccc2Cl)c1C(=O)NCc1ccc(S(N)(=O)=O)cc1	11.4
O=C(CSc1nnc(COc2ccc(Br)cc2)o1)N1CCOCC1	-0.41
Cc1cccc(N2CN(Cc3ccco3)CNC2=S)c1C	2.74
CC(=O)Nc1cccc(NC(=O)Nc2cccc(F)c2)c1	7.66
Cc1ccc(S(=O)(=O)Nc2nc(C)cc(-n3nc(C)cc3C)n2)cc1	7.23
Cc1c(CCC(=O)NCC(=O)NCC(=O)O)c(=O)oc2cc3oc4c(c3cc12)CCCC4	10.4
CCOc1ccc(CC2S/C(=N/c3ccccn3)NC2=O)cc1 (stereo not drawn)	4.6
COc1ccc(C(=O)Nc2cc3c(cc2C#N)OCO3)cc1S(=O)(=O)N1CCN(C)CC1	13.2
CC1(C)OC(=O)C(=NNc2ccccc2C(=O)O)C(=O)O1	1.73
COc1cc(-n2c(N)c(C(=O)NCc3ccco3)c3nc4ccccc4nc32)cc(OC)c1OC	15.3
NC(=O)COC(=O)CCCc1c[nH]c2ccccc12	8.35
Cc1oc2cc3oc(=O)c(CCC(=O)NCCCN4CCOCC4)c(C)c3cc2c1C	9.17
CN(CC(=O)Nc1ccccc1C(F)(F)F)C(=O)c1ccc(N2C(=O)CCC2=O)cc1	1.56

SMILES	hERG current change (%, negative = inhibition) at 1uM [%]
O=C(COC(=O)CCC1CCCC1)Nc1ccccc1OC(F)F	9.16
Cc1cccc(-n2c(N)c(C(=O)N3CCN(C)CC3)sc2=S)c1	5.92
Cc1ccc2nc(N3CCC(C(=O)NC4CCCCC4)CC3)sc2c1	16.3
CCSc1nc(C)c(C(C)=O)cc1C#N	2.62
COc1cccc(C(=O)OCC(=O)c2ccc(Br)s2)c1	5.81
CCOc1cc(C2NC(=O)c3ccccc3O2)ccc1OC (stereo not drawn)	14.2
Oc1ccc[n+](CCCCC[n+]2cccc(O)c2)c1.[Br-]	13.9
COc1ccc(C(=O)NNC2=Nc3cccc4cccc2c34)cc1	16.1
CCC(=O)NC(=S)Nc1ccc(S(=O)(=O)NC(C)=O)cc1	6
COc1ccc(S(=O)(=O)NC(C)C(=O)NCc2ccncc2)cc1OC (stereo not drawn)	15.1
CCN(C(=O)CN1CCCCC1C)c1c(N)n(Cc2ccccc2)c(=O)[nH]c1=O (stereo not drawn)	-5.21
CC(C)(C)NC(=O)CSc1nnc(C2CC2)n1-c1ccccc1	8.31
Cc1ccc2c(c1)C1CN(C)CCC1N2S(=O)(=O)c1ccc(C#N)cc1 (stereo not drawn)	-22.8
O=[N+]([O-])c1cc2c(c(CSc3nnc4ccccn34)c1)OCOC2	8.79
Cc1ccc(-c2cc(-c3ccc(C)cc3)[n+](C)o2)cc1.[O-][Cl+3]([O-])([O-])[O-]	-31.6
COC(=O)C1CN(S(=O)(=O)c2ccccc2)CCN1S(=O)(=O)c1ccccc1 (stereo not drawn)	-5.86
C=CCn1c(COc2ccccc2)nnc1SCC(=O)N/N=C/c1cc(Cl)ccc1O	15.2
CCOc1ccc(N(C)S(=O)(=O)c2ccc3[nH]cc(C(=O)NCCCOC)c(=O)c3c2)cc1	7.27
COc1cc(OC)c(OC)cc1CNC(=O)c1ccc(COc2ccccc2)cc1	15
CCC(C)(C)NC(=O)Cn1c(-c2ccc(C)cc2)noc1=O	9.92
CC(=O)Cc1nsc(NC(=O)c2c(-c3ccccc3Cl)noc2C)n1	14.1
